From PubChem BioAssay AID1508623 (National Center for Advancing Translational Sciences (NCATS), 2021) come the findings set out here.

Structures are written as SMILES. The whole screen tested about 48,000 compounds, of which about 450 (0.94%) were called active. About 19% were inconclusive and are not listed. Calls come from the whole dose curve; as a rule, active = well fitted inhibition curve with a large enough effect; inconclusive = small, poorly fitted or top-dose-only effect; inactive = no such curve, though single readings can be large or run the other way. Some of the results follow.
Potency is the fitted concentration of half-maximal effect.

A short description of the test: Primary qHTS for Identification of Small Molecule Inhibitors of Huntingtin Promoter Activity. Note: nearly all actives have a fitted effect of over 50% in size. As to conditions: HEK293 HTT promoter firefly luciferase reporter (activity 0% = vehicle and -100% = no light), 24 h; series mostly up to 57.5 µM; activity change, negative = inhibition: at the top concentration. In a few lines: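 Firefly luciferase signal from promoter-reporter HEK293 cells was scaled between vehicle (0%) and zero RLU (-100%). Compounds were tested at final concentrations of up to 57.5 uM over 24 h at 37 degrees C. PTC124 at 50 uM final served as control inhibitor.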
A general note: Quantitative high-throughput screening tests each substance at several concentrations.
As to `CN(CC=CC#CC(C)(C)C)Cc1cccc2ccccc12`, the “activity change, negative = inhibition” value is inactive: 1.41%.
Same read-out and setting: the value for `CCN(CC)CCNC(=O)COc1ccc(OC)cc1` was inactive: 6.94%.
Consider `COc1ccc(Cn2c(CO)cnc2SCc2ccc(F)cc2)cc1`, for which the Potency is active: 31.6 µM.
As for `CCc1ccc(Sc2cc(C(=O)O)c3ccccc3n2)cc1`, the “activity change, negative = inhibition” value is inactive: 0.776%.
Still for that read-out and setting: the value for `COc1ccc(-n2nc(C(=O)N(C)c3cc(Cl)ccc3OC)c3c4ccccc4n(C)c3c2=O)cc1` was inactive: -8.73%.
Turning to `Cc1ccc(Cc2nc3ccccc3nc2SCC(=O)N2CCN(c3ccccc3)CC2)cc1`, the “activity change, negative = inhibition” value was inactive: -0.206%.
Same read-out and setting: the value for `CCOc1ccccc1NC(=O)C1=C(C)Nc2ncnn2C1c1ccc(NC(C)=O)cc1` (stereo not given) was inactive: -4.44%; that for `Cc1ccc(NC(=O)CC2Nc3cc(C)c(C)cc3NC2=O)c(C)c1` (stereo not given) was inactive: -27.4%; that for `Cc1nn(CCCC(=O)NCc2ccc(OC(C)C)cc2)c(=O)c2c1sc1ccccc12` was inactive: -2.19%.
Regarding `N#CC1=C2SCN(C3CCCCC3)CN2C(=O)CC1c1c(F)cccc1Cl` (stereo not given), the “activity change, negative = inhibition” value is inactive: -18.1%.
`Cc1ccc(S(=O)(=O)c2[nH]c(-c3ccccc3)nc2SCCC(=O)O)cc1`: the “activity change, negative = inhibition” value was inactive: -5.96%.
Still for that read-out and setting: in the case of `Cc1cccc(CCNC(=O)c2ccc(CSCc3cccc(Cl)c3)o2)c1` it was inactive: -13.1%; in that of `CCCn1c(=N)n(CC(O)COc2ccccc2OC)c2ccccc21` (stereo not given), inactive: -6.48%.
As to `Cc1ccc(N2CC(NC(=O)CCc3ccccc3)CC2=O)cc1C` (stereo not given), the “activity change, negative = inhibition” value is inactive: -16%.
Same read-out and setting: in the case of `Cc1nn(CC(=O)N2CCN(c3cccc(C(F)(F)F)c3)CC2)c(=O)c2cc3sccc3n12` it was inactive: -6.82%; in that of `CCn1ccc2c(OCC(=O)NCc3ccccc3)cccc2c1=O`, inactive: -23.2%.
The same measure, in the same setting: the value for `CCCN1CCN(c2cc3c(cc2F)c(=O)c(S(=O)(=O)c2ccc(CC)cc2)cn3CC)CC1` was inactive: 4.41%.
Still for that read-out and setting: in the case of `CCOc1ccc(NC(=O)CC(C)O)cc1` (stereo not given) it was inactive: 12.9%; in that of `CC1Cn2c(C(=O)NCc3cccc(Br)c3)cc3cccc(c32)S1` (stereo not given), inactive: -10.8%.
As to `Cc1ccc(C(=O)O)cc1NC1(c2ccccc2)C(=O)c2ccccc2C1=O`, the “activity change, negative = inhibition” value is inactive: -3.49%.
The same measure, in the same setting: the value for `COc1ccc2oc(-c3ccc(C)c(NC(=O)c4ccc(-c5ccccc5[N+](=O)[O-])o4)c3)nc2c1` was inactive: -4.86%; that for `Cc1c(Cl)cccc1NC(=O)CSc1nc2ncccc2o1` was inactive: -16.8%.
Same read-out and setting: the value for `COc1ccccc1CNC(=O)C1CCCN(c2nnc(C)c3c(C)n(-c4ccccc4)nc23)C1` (stereo not given) was inactive: -4.55%; that for `CC(=O)OCC1=C(C(=O)O)N2C(=O)[C@@H](NC(=O)Cc3cccs3)[C@H]2SC1` was inactive: 4.04%.
On the same count and under the same terms, the value for `CCc1ccccc1NC(=O)c1sc2nc(C)cc(COC)c2c1N` was inactive: -0.896%; that for `C=Cc1ccc(Cn2c(=O)cc(C)c3c(C)nn(-c4ccccc4)c32)cc1` was inactive: -11.9%; that for `O=C(NC1(C(F)(F)F)C(=O)Nc2c1c(=O)[nH]c(=O)n2-c1ccccc1)c1ccccc1Cl` (stereo not given) was inactive: -7.02%.
Consider `CC(C)c1ccc(CNc2nc(-c3ccco3)nn2C(=O)c2ccc([N+](=O)[O-])cc2)cc1`, for which the “activity change, negative = inhibition” value is inactive: 70.9%.
For `CSCCC(NS(=O)(=O)c1ccc2c(c1)oc(=O)n2C)C(=O)Nc1ccc(Cl)cc1` (stereo not given), the “activity change, negative = inhibition” value is inactive: -12.2%.
As for `COCc1cc(C)nc2sc3c(c12)NC(c1ccc(O)c(OC)c1)N(c1ccccc1)C3=O` (stereo not given), the “activity change, negative = inhibition” value is inactive: -1.4%.
The same measure, in the same setting: the value for `COc1ccc(OCC(=O)N(Cc2cccs2)c2ccc(OC)cc2)cc1` was inactive: -15.7%.
Still for that read-out and setting: the value for `CCn1c(C)c(C)c2cc(C(=O)NCc3ccc(OC(C)C)cc3)ccc21` was inactive: 4.08%; that for `CCCCCN(CCC12CC3CC(CC(C3)C1)C2)C(=O)NCCCc1ccncc1` was inactive: -5.24%.
Still for that read-out and setting: in the case of `COc1ccc(NC(=O)Cn2c(=O)n(Cc3ccc4c(c3)OCO4)c(=O)c3ccc(C(=O)NC4CCCCC4)cc32)cc1` it was inactive: -3.57%; in that of `CCOCCCNc1nc2ccccc2n2c(CC)nnc12`, inactive: 35.4%; in that of `COc1ccccc1NC(=O)CSc1nc(-c2ccc(C)cc2)nc2c1Cc1c(CO)cnc(C)c1O2`, inactive: -10.2%.
`COc1ccc(-c2cn3nc(N4CCCC(C(=O)Nc5ccccc5OC)C4)sc3n2)cc1` (stereo not given): the “activity change, negative = inhibition” value is inactive: 3.27%.
Same read-out and setting: in the case of `COC(=O)c1ccccc1NC(=O)Cn1c(=O)n(CCC(=O)NCc2ccccc2OC)c(=O)c2ccccc21` it was inactive: -9.79%.
Same read-out and setting: in the case of `Cc1cn([C@@H]2O[C@H](CO)[C@@H](O)[C@H]2F)c(=O)[nH]c1=O` it was inactive: 13.7%; in that of `Cc1ccc(Cl)cc1NC(=O)CN1C(=O)CSc2ccc(S(=O)(=O)N3CCCC3)cc21`, inactive: -16.8%; in that of `c1ccc2occc2c1`, inactive: 7.4% [at 116 µM].
Same read-out and setting: the value for `Cc1cccc(NC(=O)CCN2CCN(c3ccccc3F)CC2)c1` was inactive: -11.6%; that for `CCOC(=O)c1c(S(=O)(=O)NCC(=O)N2CCN(c3cc(C)ccc3C)CC2)c(C)n(C)c1C` was inactive: -20.7%.
For the compound `CCCN(C(=O)Cn1ncc2c1-c1ccccc1OC2)c1cccc(C)c1`, the “activity change, negative = inhibition” value is inactive: -30.5%.
On the same count and under the same terms, the value for `Cc1cccc(C)c1NC(=O)Cn1c(=O)n(CCCS(=O)(=O)C2CCCCC2)c(=O)c2ccccc21` was inactive: -8.51%.
Still for that read-out and setting: in the case of `CCc1ccc(-c2nc(SCC(=O)NCC3CCCO3)c(-c3ccc(C)cc3)[nH]2)cc1` (stereo not given) it was inactive: -11.4%; in that of `CCOC(=O)C1CCN(c2c(C(=O)c3ccc(OC)cc3)cnc3ccccc23)CC1`, inactive: -10.2%; in that of `O=C(CSc1nccn1C1CCCC1)Nc1cccc(F)c1`, inactive: 10.5%.
The same measure, in the same setting: the value for `CSCC[C@@H](C(=O)Nc1cccc(F)c1)N1Cc2ccccc2C1=O` was inactive: -4.27%; that for `CCOCCc1nn2c(=O)cc(COC(=O)Cc3ccccc3)nc2s1` was inactive: -1.66%.
